Assay results as given in patent US20230346718A1, “METHOD OF TREATING, AMELIORATING AND/OR […]” (YALE UNIVERSITY, priority 2022, published 2023).

Assays:
[1] = system: healthy controls (HC) and MDD participants; experiment: Drug desirability / reinforcement and abuse liability measures; format: in vivo, human; conditions: for overall willingness to use DMT (0=not at all to 100=most of all): mean (SD)
[2] = system: patients with treatment-resistant major depressive disorder (MDD); experiment: Next day depression rating, clinician administered HAMD-17

CN(C)CCc1c[nH]c2ccccc12 [DMT, N,N-dimethyltryptamine]
overall willingness to use DMT (0=not at all to 100=most of all) ([1]; 0.1 mg/kg session): 24.00 (SD 17.91)
overall willingness to use DMT (0=not at all to 100=most of all) ([1]; 0.3 mg/kg session): 22.44 (SD 22.72)
amount participants were willing to pay for the experience ($0-100) ([1]; immediately after the dosing session): 25 $
Difference in HAMD-17 between the 0.1 mg/kg session and 0.3 mg/kg session ([2]; 95% CI −6.87 to −0.013, p=0.044): −3.5
antidepressant effect (in words) ([2]; IV 0.1 and 0.3 mg/kg, treatment-resistant MDD): produced next day (rapid) antidepressant effect
mean reduction in HAMD-17 score ([2]; MDD participants, day after 0.3 mg/kg IV): about 4.5 points
HAMD-17 score, mean difference from baseline ([2]; MDD participants, day after 0.3 mg/kg IV DMT, 95% CI −7.80 to −1.20, p=0.017): −4.5 points
Hedge's g effect size of HAMD-17 change ([2]; baseline vs day after 0.3 mg/kg IV): 0.75
HAMD-17 depression score post-0.3 mg/kg session ([2]; mean (SD), baseline 23.86 (SD 4.45)): 20.20 (SD 7.82)
